Source: the BET-seq Pho4 binding data (Le et al. 2018)
Some of the results follow. The energies were worked out here from pooled read counts, against the library average; single values are noisy.

Molecular target: T1, Pho4 (S. cerevisiae) (UniProt P07270)
T1 sequence: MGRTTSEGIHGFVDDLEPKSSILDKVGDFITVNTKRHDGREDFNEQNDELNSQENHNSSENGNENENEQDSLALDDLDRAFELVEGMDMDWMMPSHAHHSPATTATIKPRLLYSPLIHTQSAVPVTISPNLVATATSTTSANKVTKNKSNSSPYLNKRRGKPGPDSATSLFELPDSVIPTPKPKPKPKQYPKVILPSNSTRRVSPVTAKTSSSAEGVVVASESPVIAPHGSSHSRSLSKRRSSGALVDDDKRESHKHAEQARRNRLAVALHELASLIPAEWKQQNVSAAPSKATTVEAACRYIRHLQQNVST
Assay: relative binding free energy (BET-seq); higher = weaker binding
Settings: reference: library average

Sequence	relative binding free energy
ATTGTCACGTGGTGAT	0.07 kcal/mol
TATGTCACGTGAGTAA	0.22 kcal/mol
GATGCCACGTGAGGGC	0.38 kcal/mol
AGGTACACGTGGGCTT	-0.03 kcal/mol
TGCGGCACGTGAGGGC	0.03 kcal/mol
GTCTACACGTGGGTGG	0.02 kcal/mol
CTTTGCACGTGGCAGG	-0.06 kcal/mol
GTAGACACGTGAAAGG	0.43 kcal/mol
CAGGTCACGTGGGGTT	0 kcal/mol
GGGAACACGTGGGCGT	-0.21 kcal/mol
GGTTTCACGTGGTTTC	0.28 kcal/mol
AGCGTCACGTGGGGTG	-0.05 kcal/mol
GGTAGCACGTGGGCCG	-0.08 kcal/mol
GAAATCACGTGGTGTA	0.26 kcal/mol
CGTGGCACGTGCGCGG	-0.39 kcal/mol
GGATACACGTGTGGTT	0.12 kcal/mol
TTTGGCACGTGTCTTG	-0.14 kcal/mol
AAAGGCACGTGTTATG	-0.01 kcal/mol
GTATTCACGTGCAAGT	0.24 kcal/mol
GAGTTCACGTGATGGT	0.42 kcal/mol
ATAGTCACGTGCGTAT	-0.05 kcal/mol
TCAAGCACGTGGGGGA	-0.27 kcal/mol
CTTTGCACGTGGAGGA	0.03 kcal/mol

Sequence	relative binding free energy
AATGTCACGTGTTGAG	0.19 kcal/mol
CTGTACACGTGTAGTT	0.02 kcal/mol
AAATACACGTGAGGTT	0.19 kcal/mol
GGGTCCACGTGGGAAT	0.07 kcal/mol
GTTGGCACGTGAGCTG	0.03 kcal/mol
CGTCTCACGTGTTAGG	0.11 kcal/mol
TAGGTCACGTGTGTTC	0.15 kcal/mol
TGGTACACGTGCATGA	0.06 kcal/mol
AAGGGCACGTGTAATT	0.14 kcal/mol
GGTTGCACGTGCTGGC	0.04 kcal/mol
CGATGCACGTGTTGCG	-0.01 kcal/mol
GAAGGCACGTGCGGGA	-0.12 kcal/mol
GTCGGCACGTGCGGGG	-0.05 kcal/mol
TGCATCACGTGGTACT	0.14 kcal/mol
TTGGCCACGTGGGGGT	-0.19 kcal/mol
GAGGGCACGTGGCTAT	-0.22 kcal/mol
AGTAGCACGTGAATAG	0.26 kcal/mol
TTATACACGTGGCAGG	-0.06 kcal/mol
GTAATCACGTGTTTAT	0.08 kcal/mol
TATACCACGTGTTATT	0.01 kcal/mol
CATTTCACGTGGTGGG	0.19 kcal/mol
AGTGGCACGTGGGGAA	-0.18 kcal/mol
TTCAGCACGTGTGATG	0.06 kcal/mol

Sequence	relative binding free energy
TTTTACACGTGCGTGG	0.14 kcal/mol
GTTGTCACGTGACGTT	0.11 kcal/mol
TACGGCACGTGGGTAG	-0.19 kcal/mol
CCGTGCACGTGTGTTG	0.03 kcal/mol
ATTAACACGTGGTATT	-0.16 kcal/mol
GTAGCCACGTGAGGTT	0.17 kcal/mol
ATGTACACGTGTCGGT	0.16 kcal/mol
AGGAACACGTGGTGCG	-0.13 kcal/mol
TGTGGCACGTGGGGAT	-0.17 kcal/mol
TTCGTCACGTGTTAAA	0.12 kcal/mol
CAGGTCACGTGTGTTT	0.06 kcal/mol
AGTGTCACGTGCATTG	-0.06 kcal/mol
TTGTCCACGTGGGCTG	-0.03 kcal/mol
TAGCGCACGTGAGGGC	0.12 kcal/mol
TACGGCACGTGTGTTT	0.05 kcal/mol
GGGATCACGTGGTAAG	0.21 kcal/mol
AGCGTCACGTGTTGTG	0.05 kcal/mol
GTTGTCACGTGTTGCG	0.08 kcal/mol
CTGGGCACGTGAGGGC	0.11 kcal/mol
TTCAACACGTGTGTAG	-0.03 kcal/mol
AAGCGCACGTGGGGAG	-0.19 kcal/mol
AGGATCACGTGATATG	0.22 kcal/mol
GATATCACGTGTATTA	0.13 kcal/mol

Sequence	relative binding free energy
GTAATCACGTGGGTTC	0.08 kcal/mol
TGTGTCACGTGGATTT	0.09 kcal/mol
GTGGCCACGTGGGGAA	-0.15 kcal/mol
AGCGTCACGTGGTGGG	0.01 kcal/mol
TTTGTCACGTGTGAGG	0.2 kcal/mol
GAGTGCACGTGGAATG	0.23 kcal/mol
GGATTCACGTGGAATT	0.1 kcal/mol
TGGTTCACGTGTTCGA	0.22 kcal/mol
ATAGGCACGTGGTAAG	-0.13 kcal/mol
TATGGCACGTGTTCGG	-0.15 kcal/mol
GATGTCACGTGCTTGT	0.07 kcal/mol
TGTTCCACGTGCGCGT	0 kcal/mol
TTTGACACGTGATCTT	0.02 kcal/mol
TCATTCACGTGGGAGG	0.25 kcal/mol
TGAAACACGTGAGGTA	0.27 kcal/mol
TTGCGCACGTGTTGTA	-0.13 kcal/mol
GTGTGCACGTGACGAT	0.11 kcal/mol
TATTGCACGTGTCGTG	-0.03 kcal/mol
ATTTGCACGTGGATGC	-0.08 kcal/mol
TGTGGCACGTGGCCCG	-0.2 kcal/mol
ACGGGCACGTGGGGAT	-0.13 kcal/mol
TTAGACACGTGGAGTT	0.13 kcal/mol
GGTGGCACGTGACCGG	-0.11 kcal/mol

Sequence	relative binding free energy
CGGCGCACGTGGATGG	-0.13 kcal/mol
GATATCACGTGAGATT	0.35 kcal/mol
ATTTACACGTGTTATG	0.08 kcal/mol
AAATTCACGTGCGGTG	0.24 kcal/mol
TGTTACACGTGTTAGC	0.14 kcal/mol
GGCCGCACGTGAAGGT	0.3 kcal/mol
ATTGTCACGTGCGTCA	0.06 kcal/mol
TAAGTCACGTGTTTGC	0.09 kcal/mol
AATAACACGTGGTTGG	-0.05 kcal/mol
AGCATCACGTGTGTGA	0.21 kcal/mol
TAGATCACGTGTGGTC	0.19 kcal/mol
GATGTCACGTGTGGCA	0.02 kcal/mol
TCAGCCACGTGTAGGG	0.02 kcal/mol
AAGCGCACGTGTAGTT	0 kcal/mol
CTATACACGTGGCTGG	0.2 kcal/mol
TAGTGCACGTGGAAAT	0.13 kcal/mol
TGATGCACGTGTGTCT	-0.07 kcal/mol
TGGAGCACGTGGTATT	0.01 kcal/mol
GTGGTCACGTGCTGTC	0.26 kcal/mol
GTATGCACGTGTTAAT	0.05 kcal/mol
GTGGTCACGTGGGCGG	0.06 kcal/mol
TTAAGCACGTGTTTTG	-0.1 kcal/mol
TTTGGCACGTGATTCA	-0.07 kcal/mol
